Data published in the supplement of paper PMC7125110.
± gives the standard error. Variants at the floor of the assay are shown more often than the library holds them.

B1: glmS ribozyme (parent)
chain: AUAAAAGCGCCAGAACUACAGAAAUGUAGUUGACGAGGAGGAGGUUUAUCGAAUUUUCGGCGGAUGCCUCCAAA

Variants of: B1
Experiment: self-cleavage kobs at 10000 uM GlcN6P; higher = faster cleavage; RNA array
Conditions: with glucosamine-6-phosphate
Outline: (§1)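 Glucosamine-6-phosphate in HEPES/KCl/Mg(OAc)2 buffer, at 40 μM to 10 mM, was flowed over barcoded ribozyme variants transcribed in situ by E. coli RNA polymerase on sequenced MiSeq chips. Tracking was through a hybridised Cy3 probe at 37 °C. kobs, kcat and KM came from exponential decay fits and weighted Michaelis–Menten fits of normalised per-tile medians.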

self-cleavage kobs at 10000 uM GlcN6P, 6.79e-05 ± 1.1e-05 s⁻¹:
AUAAAAGCGCCAGAACUACAGAAAUGUAGUUGACGAGGAGGAGGUUUAUCGAAUUUUCGGCGGAUGCUCCCAAA [C68U U69C]

self-cleavage kobs at 10000 uM GlcN6P, 5.31e-05 ± 6.3e-06 s⁻¹:
AUAAAAGCGCCAGAACUACAGAAAUGUAGUUGACGAGGAGGAGGUUUAUCGAAUUUUCGGCGGUUGUCUCCAAA [A64U C67U]

self-cleavage kobs at 10000 uM GlcN6P, < 1e-05 s⁻¹:
AUAAAAUCGCCAGAACUACAGAAAUGUAGUUGACGAGGAGGAGGUUUAUCGAAUUUUCGGUGGAUGCCUACAAA [G7U C61U C70A]
AUAAAGGCGCCAGAACUACAGAAAUGUAGUUGACGAGGAGGAGGUUUAUCGUAUUUUCGACGGAUACCUCCAAA [A6G A52U G60A G66A]
AUAAAACCGCCACAACUACAGAAAUGUAGUUGACGAGGAGGGGGUUUAUCGAAUUUUCGGCGGAUGCCUCCAAA [G7C G13C A42G]
AUAAAACCGCCAGAACUACAGAAAUGUACUUGACGAGGAGGAGGUUUAUCGAAUUUUCGGCGGAUGCCUGCAAA [G7C G29C C70G]
AUAAAAGCGCCAGAACUACAGAAAUGUAGUUGACGAGGAGGAGGUUUAUCGAAUUUUCGGCGAAUGCCUCUAAA [G63A C71U]
AUAAAGGCGCCAGAACUACAGAAAUGUAGUUGACGAGGAGGAGGUUUAUCGAAUUUUCGGCGGAUGUCUUCAAA [A6G C67U C70U]
AUAAAAUCGCCAGAACUACAGAAAUGUAUUUGACGAGGAGAAGGUUUAUCGAAUUUUCGGCGGAUGCCUCAAAA [G7U G29U G41A C71A]
AUAAAAACGCCAGAACUACAUAAAUGUAGUUGACGAGGAGGAGGUUUAUCGAAUUUUCGGCGGAUUCCUCCAAA [G7A G21U G66U]
AUAAACGCGCCAGAACUACAGAAAUGUAGUUGACGAGGAGGUGGUUUAUCCAAUUUUCGGCGGAUGCCUCCAAA [A6C A42U G51C]
AUAAAAUCGCCAGAACUACAGAAAUGUAGUUGACGAUGAGGAGCUUUAUCGACUUUUCGGCGUAUGCCUCCAAA [G7U G37U G44C A53C G63U]
AUAAAACGGCCAGAACUACAGAAAUGUAGUUGACGAGGAGAAGGUUUAUCGAAUUUUCGGCGGAGUCCUCCAAA [G7C C8G G41A U65G G66U]
AUAAAGGCGCCAGAACUACAGAAAUGUAGUUGACGAGGAGCAGGUUUAGCGAAUUUUCGGCGUAUGCCUCCAAA [A6G G41C U49G G63U]
AUAAACGCGCCAGAACUACAGAAAUGUAGUUGACGAGGAGGAGGUUUAUUGAAUUUUCGGCUGAUGCCUCCAAA [A6C C50U G62U]
AUAAAAUCGCCAUAACUACAGAAAUGUAGUUGACGACGAGGAGGUUUAUCGAAUUUUCGGCGGAUUCCUCCAAA [G7U G13U G37C G66U]
AUAAAGGCGCCAGAACUACAGAAAUGUAUUUGACGAGGAGGAGGUUUAGCGAAAUUUCGGCGGAUGCCUCCAAA [A6G G29U U49G U54A]
AUAAAACCGCCAGAACUACAGAAAUGUAGUUGACUAGUAGGAGGUUUAUCGAAUUUUCGGCGGAUGCCUCCAAA [G7C G35U G38U]
AUAAAGGUGCCAGAUCUACAGAAAUGUAGUUGACGAGGAGGAGGUUUAUCUAAUUUUCGGCGGAUGCUUCCAAA [A6G C8U A15U G51U C68U]
AUAAACGCGCCAGAACUACAGAAAUGUAGUUGACGAGGAGGAUGUUUAUCGAAUUUUCUGCGGAUGCCUCCAAA [A6C G43U G59U]
AUAAAGGCGCCAGAACUACAGAAAUGUAAUUGACGAGGAGGAGGUUUAUCGAAUUUUCGCCGCAUGCCUCCAAA [A6G G29A G60C G63C]
AUAAAUGCGCCAGAACUACAGAAAUGUAGUUGACGAGGGGGAGGUUUAUCGGAUUUUGUUCGGAUGCCUCCAAA [A6U A39G A52G C58G G59U G60U]
AUAAAAUCGCCAGACCUACAGAAAUGUAGUUUACGAGGAGGAGGUUUCUCGAAUUUUCGGUGGAUGCCUCCAAA [G7U A15C G32U A48C C61U]
AUAAAAGCGCCAGAACUACAGAAAUGUAGUUGACGAGGAGGAGGUUUAUCGAAUUUUCGGCAGAUCCCUCCAAA [G62A G66C]
AUAAACGCGCCAGAAGUACAGAAAUGUACUUGACGACGAGUAGGUUUAUCGCAUUUUCGGCGGAUGCCUCCAAA [A6C C16G G29C G37C G41U A52C]
AUAAACGCGCCAGAACUACAGAAAUGUAGUUGACGAGGAGGAGGUUUCUCGAAUUUUCGGCGGGUGCCUCCAAA [A6C A48C A64G]
AUAAAGGCGCGAGAACUACAGAAAUGUAGUUGACGAGGAAGAGGUUGAUCGAAUUUUCGGCGGAUGCCUCCAAA [A6G C11G G40A U47G]
AUAAAUGCGCCAGAACUACAGAAAUGUAGUUGACGAGGAGGAGUUUUAUCGAAUUAUCGGCGGAUGCCUCCAAA [A6U G44U U56A]
AUAAAUGCGCCAGAACUACAGAAAUGUAGUUGACGAGAAGGAGGUUUAUCGAAUUUUCGGCGGCUGCAUCCAAA [A6U G38A A64C C68A]
AUAAACGCGCCAGAACUACAGAAAUGUAGUUGACGAGGAGGAUGUUUAUCGAAUUUUCGGGGGAUGCCUCCAAA [A6C G43U C61G]
AUAAAAUCGCCAGAACUACAGAAAUGUAGUUGACGAGAAGGAGGUUUAUCGAAUAUUCGGCGGAUGCCUCGAAA [G7U G38A U55A C71G]

Variants of: B1
Experiment: self-cleavage kobs at 2500 uM GlcN6P; higher = faster cleavage; RNA array
Conditions: with glucosamine-6-phosphate
Outline: as §1

self-cleavage kobs at 2500 uM GlcN6P, < 1e-05 s⁻¹:
AUAAAAGCGCCAGAACUACAGAAAUGUAGUUGACGAGGAGGAGGUUUAUCGAAUUUUCGGCGAAUGCCUCUAAA [G63A C71U]
AUAAAAGCGCCAGAACUACAGAAAUGUAGUUGACGAGGAGGAGGUUUAUCGAAUUUUCGGCAGAUCCCUCCAAA [G62A G66C]
AUAAAAGCGCCAGAACUACAGAAAUGUAGUUGACGAGGAGGAGGUUUAUCGAAUUUUCUGCGGAAGCCUCCAAA [G59U U65A]

self-cleavage kobs at 2500 uM GlcN6P, 3.88e-05 ± 1.4e-05 s⁻¹:
AUAAAAGCGCCAGAACUACAGAAAUGUAGUUGACGAGGAGGAGGUUUAUCGAAUUUUCGGCGGAUGCUCCCAAA [C68U U69C]

self-cleavage kobs at 2500 uM GlcN6P, 6.52e-05 ± 1.8e-05 s⁻¹:
AUAAAAGCGCCAGAACUACAGAAAUGUAGUUGACGAGGAGGAGGUUUAUCGAAUUUUCGGCGGCUGGAUCCAAA [A64C C67G C68A]

self-cleavage kobs at 2500 uM GlcN6P, 5.62e-05 ± 8.7e-06 s⁻¹:
AUAAAAGCGCCAGAACUACAGAAAUGUAGUUGACGAGGAGGAGGUUUAUCGAAUUUUCGGCGGUUGUCUCCAAA [A64U C67U]
